B1: B07v1 (Fc fusion)
chain: QVQLVESGGGLVQTGGSLRLSCTASGFTSDTGGMGWFRQAAGKERDFVSAITWSGRHTLYADSVKGRFNISRDKGKNTVFLQMNSLKPEDTAVYYCALDVVGIGIEVQTYDYWGQGTQVTVSSGGGGAS[sequence of human IgG1 Fc with changes omitted]
notes: B07 L27F (Kabat) on human IgG1 Fc; also called B07 L27F
B2: B07v2 (Fc fusion)
chain: QVQLVESGGGLVQTGGSLRLSCTASGLTFDTGGMGWFRQAAGKERDFVSAITWSGRHTLYADSVKGRFNISRDKGKNTVFLQMNSLKPEDTAVYYCALDVVGIGIEVQTYDYWGQGTQVTVSSGGGGAS[sequence of human IgG1 Fc with changes omitted]
notes: B07 S29F (Kabat) on human IgG1 Fc; also called B07 S29F
B3: B07v3 (Fc fusion)
chain: QVQLVESGGGLVQTGGSLRLSCTASGLTSSTGGMGWFRQAAGKERDFVSAITWSGRHTLYADSVKGRFNISRDKGKNTVFLQMNSLKPEDTAVYYCALDVVGIGIEVQTYDYWGQGTQVTVSSGGGGAS[sequence of human IgG1 Fc with changes omitted]
notes: B07 D30S (Kabat) on human IgG1 Fc; also called B07 D30S
B4: B07v4 (Fc fusion)
chain: QVQLVESGGGLVQTGGSLRLSCTASGLTSETGGMGWFRQAAGKERDFVSAITWSGRHTLYADSVKGRFNISRDKGKNTVFLQMNSLKPEDTAVYYCALDVVGIGIEVQTYDYWGQGTQVTVSSGGGGAS[sequence of human IgG1 Fc with changes omitted]
notes: B07 D30E (Kabat) on human IgG1 Fc; also called B07 D30E
B5: B07v5 (Fc fusion)
chain: QVQLVESGGGLVQTGGSLRLSCTASGLTSDTYGMGWFRQAAGKERDFVSAITWSGRHTLYADSVKGRFNISRDKGKNTVFLQMNSLKPEDTAVYYCALDVVGIGIEVQTYDYWGQGTQVTVSSGGGGAS[sequence of human IgG1 Fc with changes omitted]
notes: B07 G32Y (Kabat) on human IgG1 Fc; also called B07 G32Y
B6: B07v6 (Fc fusion)
chain: QVQLVESGGGLVQTGGSLRLSCTASGLTSDTGAMGWFRQAAGKERDFVSAITWSGRHTLYADSVKGRFNISRDKGKNTVFLQMNSLKPEDTAVYYCALDVVGIGIEVQTYDYWGQGTQVTVSSGGGGAS[sequence of human IgG1 Fc with changes omitted]
notes: B07 G33A (Kabat) on human IgG1 Fc; also called B07 G33A
B7: B07v7 (Fc fusion)
chain: QVQLVESGGGLVQTGGSLRLSCTASGLTSDTGGMSWFRQAAGKERDFVSAITWSGRHTLYADSVKGRFNISRDKGKNTVFLQMNSLKPEDTAVYYCALDVVGIGIEVQTYDYWGQGTQVTVSSGGGGAS[sequence of human IgG1 Fc with changes omitted]
notes: B07 G35S (Kabat) on human IgG1 Fc; also called B07 G35S
B8: B07v8 (Fc fusion)
chain: QVQLVESGGGLVQTGGSLRLSCTASGLTSDTGGMGWFRQAAGKERDFVSAISWSGRHTLYADSVKGRFNISRDKGKNTVFLQMNSLKPEDTAVYYCALDVVGIGIEVQTYDYWGQGTQVTVSSGGGGAS[sequence of human IgG1 Fc with changes omitted]
notes: B07 T52S (Kabat) on human IgG1 Fc; also called B07 T52S
B9: B07v9 (Fc fusion)
chain: QVQLVESGGGLVQTGGSLRLSCTASGLTSDTGGMGWFRQAAGKERDFVSAITSSGRHTLYADSVKGRFNISRDKGKNTVFLQMNSLKPEDTAVYYCALDVVGIGIEVQTYDYWGQGTQVTVSSGGGGAS[sequence of human IgG1 Fc with changes omitted]
notes: B07 W52aS (Kabat) on human IgG1 Fc; also called B07 W52aS
B10: B07v10 (Fc fusion)
chain: QVQLVESGGGLVQTGGSLRLSCTASGLTSDTGGMGWFRQAAGKERDFVSAITGSGRHTLYADSVKGRFNISRDKGKNTVFLQMNSLKPEDTAVYYCALDVVGIGIEVQTYDYWGQGTQVTVSSGGGGAS[sequence of human IgG1 Fc with changes omitted]
notes: B07 W52aG (Kabat) on human IgG1 Fc; also called B07 W52aG
B11: B07v11 (Fc fusion)
chain: QVQLVESGGGLVQTGGSLRLSCTASGLTSDTGGMGWFRQAAGKERDFVSAITWNGRHTLYADSVKGRFNISRDKGKNTVFLQMNSLKPEDTAVYYCALDVVGIGIEVQTYDYWGQGTQVTVSSGGGGAS[sequence of human IgG1 Fc with changes omitted]
notes: B07 S53N (Kabat) on human IgG1 Fc; also called B07 S53N
B12: B07v12 (Fc fusion)
chain: QVQLVESGGGLVQTGGSLRLSCTASGLTSDTGGMGWFRQAAGKERDFVSAITWSGSHTLYADSVKGRFNISRDKGKNTVFLQMNSLKPEDTAVYYCALDVVGIGIEVQTYDYWGQGTQVTVSSGGGGAS[sequence of human IgG1 Fc with changes omitted]
notes: B07 R55S (Kabat) on human IgG1 Fc; also called B07 R55S
B13: B07v13 (Fc fusion)
chain: QVQLVESGGGLVQTGGSLRLSCTASGLTSDTGGMGWFRQAAGKERDFVSAITWSGGHTLYADSVKGRFNISRDKGKNTVFLQMNSLKPEDTAVYYCALDVVGIGIEVQTYDYWGQGTQVTVSSGGGGAS[sequence of human IgG1 Fc with changes omitted]
notes: B07 R55G (Kabat) on human IgG1 Fc; also called B07 R55G
B14: B07v14 (Fc fusion)
chain: QVQLVESGGGLVQTGGSLRLSCTASGLTSDTGGMGWFRQAAGKERDFVSAITWSGRHTYYADSVKGRFNISRDKGKNTVFLQMNSLKPEDTAVYYCALDVVGIGIEVQTYDYWGQGTQVTVSSGGGGAS[sequence of human IgG1 Fc with changes omitted]
notes: B07 L58Y (Kabat) on human IgG1 Fc; also called B07 L58Y
B15: B07v15 (Fc fusion)
chain: QVQLVESGGGLVQTGGSLRLSCTASGLTSDTGGMGWFRQAAGKERDFVSAITWSGRHTLYADSVKGRFNISRDKGKNTVFLQMNSLKPEDTAVYYCARDVVGIGIEVQTYDYWGQGTQVTVSSGGGGAS[sequence of human IgG1 Fc with changes omitted]
notes: B07 L94R (Kabat) on human IgG1 Fc; also called B07 L94R
B16: B07v16 (Fc fusion, name in Kabat numbering)
chain: QVQLVESGGGLVQTGGSLRLSCTASGLTSDTGGMGWFRQAAGKERDFVSAITWSGRHTLYADSVKGRFNISRDKGKNTVFLQMNSLKPEDTAVYYCALAVVGIGIEVQTYDYWGQGTQVTVSSGGGGAS[sequence of human IgG1 Fc with changes omitted]
notes: 95 is a Kabat number, not a count on the entry (first D of CDR3 ALDVVG...); also called DC2676; B07 D95A
B17: B07v17 (Fc fusion)
chain: QVQLVESGGGLVQTGGSLRLSCTASGLTSDTGGMGWFRQAAGKERDFVSAITWSGRHTLYADSVKGRFNISRDKGKNTVFLQMNSLKPEDTAVYYCALDAVGIGIEVQTYDYWGQGTQVTVSSGGGGAS[sequence of human IgG1 Fc with changes omitted]
notes: B07 V96A (Kabat) on human IgG1 Fc; also called B07 V96A
B18: B07v18 (Fc fusion)
chain: QVQLVESGGGLVQTGGSLRLSCTASGLTSDTGGMGWFRQAAGKERDFVSAITWSGRHTLYADSVKGRFNISRDKGKNTVFLQMNSLKPEDTAVYYCALDVAGIGIEVQTYDYWGQGTQVTVSSGGGGAS[sequence of human IgG1 Fc with changes omitted]
notes: B07 V97A (Kabat) on human IgG1 Fc; also called B07 V97A
B19: B07v19 (Fc fusion)
chain: QVQLVESGGGLVQTGGSLRLSCTASGLTSDTGGMGWFRQAAGKERDFVSAITWSGRHTLYADSVKGRFNISRDKGKNTVFLQMNSLKPEDTAVYYCALDVVAIGIEVQTYDYWGQGTQVTVSSGGGGAS[sequence of human IgG1 Fc with changes omitted]
notes: B07 G98A (Kabat) on human IgG1 Fc; also called B07 G98A

molecular target: T1, human transferrin receptor apical domain (human, UniProt P02786 198-378, limits assumed); experiment: SPR (Biacore 8K), VHH-Fc captured, TfR apical domain as analyte
T1 construct: domain: apical domain; Soluble analyte in SPR; also called huTfR-AD; human TfR apical domain
T1 sequence (P02786 198-378 limits assumed): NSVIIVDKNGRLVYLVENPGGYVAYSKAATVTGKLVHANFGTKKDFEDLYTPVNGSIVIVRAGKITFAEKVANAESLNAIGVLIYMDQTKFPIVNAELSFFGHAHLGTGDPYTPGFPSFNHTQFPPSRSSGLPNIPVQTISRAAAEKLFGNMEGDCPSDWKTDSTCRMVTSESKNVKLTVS
Protocol: (§1) A set of experiments was performed to assess the binding affinities of VHH-Fc fusions for human and cyno TfR apical domain. In these experiments, binding affinities were determined by surface plasmon resonance using a Biacore™ 8K instrument in 1×HBS-EP+running buffer (GE Healthcare Cat. No. BR100669). Biacore™ Series S CM5 sensor chips were treated with a Human antibody capture kit (GE Healthcare, Cat. No. BR100839). VHH-Fc fusions were captured on each flow cell and serial 3-fold dilutions of human and cyno TfR apical domain (300, 100, 33, 11, 3.7, and 0 nM) were injected at a flow rate of 30 μL/min using the multi cycle kinetics method. Each sample was analyzed with a 270-second association and a 10-minute dissociation. Some VHH-Fc fusions were measured with serial 3-fold dilutions of human and cyno TfR apical domain (100, 33, 11, and 0 nM) with a 300-second association and 10-minute dissociation. After each cycle, the chip was regenerated using 3 M magnesium chloride for 30 seconds at 50 μL/minute. Binding response was corrected by subtracting the RU from a reference flow cell. A 1:1 Langmuir model of simultaneous fitting of kₒₙ and koff was used for kinetics analysis using Biacore™ 8K Evaluation Software.
(§2) The variable domains containing the mutation were sub-cloned onto the corresponding constant heavy domains of human IgG1. The heavy chain plasmids were transfected in Expi293 cells. Supernatants were collected after five days and monoclonal antibodies were purified by protein A chromatography. In order to assess affinities of the B07 mutants for human and cyno TfR apical domain, binding affinities were determined by surface plasmon resonance using a Biacore™ 8K instrument as described herein.

Question: Which Kd does the source give for B1 here?
Answer: 1 nM

Question: How did the Kd turn out when B2 was run?
Answer: 0.9 nM

Question: For B3, which Kd is on record?
Answer: 0.7 nM

Question: B4 was tested. Which Kd did it give?
Answer: 0.8 nM

Question: Which Kd does the source give for B5 here?
Answer: 4.7 nM

Question: B6 was tested. Which Kd did it give?
Answer: 36 nM

Question: With B7 as the binder, how does the Kd read?
Answer: 1.2 nM

Question: With B8 as the binder, how does the Kd read?
Answer: 3.2 nM

Question: B9 was tested. Which Kd did it give?
Answer: 2.7 nM

Question: How did the Kd turn out when B10 was run?
Answer: 3.6 nM

Question: With B11 as the binder, how does the Kd read?
Answer: 21 nM

Question: How did the Kd turn out when B12 was run?
Answer: 8.3 nM

Question: Which Kd does the source give for B13 here?
Answer: 8.1 nM

Question: For B14, which Kd is on record?
Answer: 8.2 nM

Question: For B15, which Kd is on record?
Answer: 3.1 nM

Question: Does B16 bind?
Answer: no binding

Question: For B17, which Kd is on record?
Answer: 1 nM

Question: B18 was tested. Which Kd did it give?
Answer: 5.5 nM

Question: How did the Kd turn out when B19 was run?
Answer: 330 nM

molecular target: T2, cynomolgus transferrin receptor apical domain (cynomolgus, UniProt A0A2K5X958 198-378); experiment: as above
T2 construct: domain: apical domain; Soluble analyte in SPR; also called cyTfR-AD; cyno TfR apical domain
T2 sequence (A0A2K5X958 entry or part of it): as the sequence (P02786 198-378 limits assumed) above, with R11G, Y50D, T51S, N95K, E97D, R128Q, R167K, S173N, N175S counted along it
Protocol: as §1, §2

Question: With B1 as the binder, how does the Kd read?
Answer: 2.8 nM

Question: How did the Kd turn out when B2 was run?
Answer: 2.5 nM

Question: Which Kd does the source give for B3 here?
Answer: 1.9 nM

Question: For B4, which Kd is on record?
Answer: 2.1 nM

Question: B5 was tested. Which Kd did it give?
Answer: 17 nM

Question: B6 was tested. Which Kd did it give?
Answer: 120 nM

Question: Which Kd does the source give for B7 here?
Answer: 3.2 nM

Question: For B8, which Kd is on record?
Answer: 8.9 nM

Question: For B9, which Kd is on record?
Answer: 8.7 nM

Question: For B10, which Kd is on record?
Answer: 11 nM

Question: B11 was tested. Which Kd did it give?
Answer: 53 nM

Question: B12 was tested. Which Kd did it give?
Answer: 25 nM

Question: Which Kd does the source give for B13 here?
Answer: 22 nM

Question: With B14 as the binder, how does the Kd read?
Answer: 9.5 nM

Question: With B15 as the binder, how does the Kd read?
Answer: 10 nM

Question: Does B16 bind?
Answer: no binding

Question: How did the Kd turn out when B17 was run?
Answer: 2.9 nM

Question: B18 was tested. Which Kd did it give?
Answer: 18 nM

Question: With B19 as the binder, how does the Kd read?
Answer: 160 nM

Source: US20250333528A1 (DENALI THERAPEUTICS, published 2025)
